According to PMC8858569:
No constants are given. Whether binding was seen depends on the method and setting. For some assays here: In cells and extracts the contact can be indirect. Some results given as binding are weak or reduced against the parent protein; the word gives no strength. For some assays here: Sequences can lack the tags named with a protein.

By UniProt entry, the sequences of proteins in these tests, tags left out. Residues count along the entry.
UniProt Q99523, residues 779-831: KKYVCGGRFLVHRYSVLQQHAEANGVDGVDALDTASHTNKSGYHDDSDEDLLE
UniProt Q9NRD5: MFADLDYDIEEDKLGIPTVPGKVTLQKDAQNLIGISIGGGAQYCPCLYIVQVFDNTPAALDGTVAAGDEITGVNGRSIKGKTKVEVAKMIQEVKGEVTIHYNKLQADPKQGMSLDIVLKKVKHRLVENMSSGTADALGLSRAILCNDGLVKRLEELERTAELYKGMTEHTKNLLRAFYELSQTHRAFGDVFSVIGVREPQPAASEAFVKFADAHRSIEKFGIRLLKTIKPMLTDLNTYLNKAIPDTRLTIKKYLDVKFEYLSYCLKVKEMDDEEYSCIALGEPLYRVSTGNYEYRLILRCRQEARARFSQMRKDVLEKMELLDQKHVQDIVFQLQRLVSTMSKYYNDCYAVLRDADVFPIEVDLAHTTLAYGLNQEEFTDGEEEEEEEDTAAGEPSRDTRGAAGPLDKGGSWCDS
UniProt Q62083: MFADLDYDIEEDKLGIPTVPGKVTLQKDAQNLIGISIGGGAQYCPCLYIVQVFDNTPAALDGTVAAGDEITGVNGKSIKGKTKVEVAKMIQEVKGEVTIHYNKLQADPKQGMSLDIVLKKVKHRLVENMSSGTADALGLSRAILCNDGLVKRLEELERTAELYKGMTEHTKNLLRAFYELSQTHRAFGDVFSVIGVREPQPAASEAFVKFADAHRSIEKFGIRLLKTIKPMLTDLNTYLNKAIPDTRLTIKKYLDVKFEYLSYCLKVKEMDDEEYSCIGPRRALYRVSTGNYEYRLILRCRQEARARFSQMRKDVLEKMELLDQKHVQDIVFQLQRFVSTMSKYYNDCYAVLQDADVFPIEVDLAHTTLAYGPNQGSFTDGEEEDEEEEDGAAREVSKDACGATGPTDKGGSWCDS
UniProt Q9UJY4: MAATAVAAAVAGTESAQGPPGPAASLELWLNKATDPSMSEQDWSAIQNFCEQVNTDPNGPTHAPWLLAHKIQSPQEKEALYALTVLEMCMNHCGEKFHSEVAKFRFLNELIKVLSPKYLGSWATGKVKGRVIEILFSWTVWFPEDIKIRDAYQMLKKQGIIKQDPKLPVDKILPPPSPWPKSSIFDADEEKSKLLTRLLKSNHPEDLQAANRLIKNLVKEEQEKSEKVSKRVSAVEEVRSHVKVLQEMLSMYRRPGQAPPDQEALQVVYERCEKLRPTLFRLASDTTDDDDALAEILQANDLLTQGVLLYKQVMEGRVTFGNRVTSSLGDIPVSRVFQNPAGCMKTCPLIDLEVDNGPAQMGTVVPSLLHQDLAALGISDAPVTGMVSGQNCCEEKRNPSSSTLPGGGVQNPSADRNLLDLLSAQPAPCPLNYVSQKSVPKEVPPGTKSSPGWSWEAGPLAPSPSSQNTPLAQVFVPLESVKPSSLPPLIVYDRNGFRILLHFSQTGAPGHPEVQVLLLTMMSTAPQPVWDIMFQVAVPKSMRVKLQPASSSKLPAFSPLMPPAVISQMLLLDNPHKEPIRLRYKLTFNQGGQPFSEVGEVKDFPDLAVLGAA

Key:
[1] = target: T1, GST fused to the cytoplasmic domain of SorLA (UniProt Q92673); assay: pull-down; GST or GST-SorLA-cd prebound to glutathione magnetic agarose beads, incubated 2 h at 4 °C with lysate of CHO cells stably expressing PICK1-Myc (150 mM NaCl, 1% Triton X-100, 20 mM Tris-HCl, 10 mM EDTA, pH 8.0); immunoblot with anti-PICK1; only the target purified
T1 sequence: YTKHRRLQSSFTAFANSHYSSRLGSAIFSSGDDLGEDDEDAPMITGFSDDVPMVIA

[2] = target: T1, GST fused to the cytoplasmic domain of SorLA; assay: pull-down; GST or GST-SorLA-cd on glutathione magnetic agarose beads, incubated overnight with solubilised mouse forebrain extract (S3; 0.1 mM EDTA, 1% Triton, pH 7.4); immunoblot with anti-PICK1; only the target purified
[3] = target: T2, GAL4 DNA-binding domain fused to the wild-type cytoplasmic domain of SorLA (UniProt Q92673); assay: two-hybrid; mammalian two-hybrid (modified Checkmate system) in N2a cells; GAL4 DNA-binding domain fused to the cytoplasmic domains, VP16 activation domain fused to PICK1; firefly luciferase normalised to co-transfected eGFP
T2 sequence: T1 sequence

[4] = target: GAL4 DNA-binding domain fused to the wild-type cytoplasmic domain of Sortilin (UniProt Q99523); assay: as above
T70mV-Sortilin-CD = T70mV-Sortilin-CD (UniProt Q99523); assay: recruitment to mitochondria in cells (confocal microscopy); COS7 cells co-transfected with a cytoplasmic domain placed on mitochondria by Tom70(1-88)-mVenus and a tdTomato-tagged adaptor; recruitment of tdTomato to mitochondria read out
T70mV-SorLA-CD = target: T3, T70mV-SorLA-CD (UniProt Q92673); assay: as above
T3 sequence: T1 sequence

binding (T70mV-Sortilin-CD) | binding (T70mV-SorLA-CD) | Substance | also measured
– | – | Myc-tagged PICK1 (from UniProt Q9NRD5 1-415) | binding [1]: binds
– | – | PICK1 of mouse brain (from UniProt Q62083 1-416) | binding [2]: binds
– | – | VP16 transcriptional activation domain fused to full length PICK1 (from UniProt Q9NRD5 1-415) | binding [3]: binds; binding [4]: no binding
binds | binds | tdTomato-GGA2 (from UniProt Q9UJY4 1-613) | –
no binding | binds | tdTomato-PICK1 (from UniProt Q9NRD5 1-415) | –
